PubChem BioAssay AID1460 (National Center for Advancing Translational Sciences (NCATS), 2008)
Out of some 270,000 compounds screened, about 5,800 (2.1%) were called active. This list was built around the results that the source calls inconclusive (neither active nor inactive); the mix of calls is not that of the screen. The call rests on the fitted dose curve; in most records, active means well fitted inhibition curve with a large enough effect; inconclusive means small, poorly fitted or top-dose-only effect; inactive means flat fitted curve, though single readings scatter. Potencies beside an inconclusive call are fits to weak or partial responses and may not hold up.

Biological target: Microtubule-associated protein tau (Homo sapiens) (UniProt P10636)
UniProt P10636, sequence (P10636 whole entry, looked up): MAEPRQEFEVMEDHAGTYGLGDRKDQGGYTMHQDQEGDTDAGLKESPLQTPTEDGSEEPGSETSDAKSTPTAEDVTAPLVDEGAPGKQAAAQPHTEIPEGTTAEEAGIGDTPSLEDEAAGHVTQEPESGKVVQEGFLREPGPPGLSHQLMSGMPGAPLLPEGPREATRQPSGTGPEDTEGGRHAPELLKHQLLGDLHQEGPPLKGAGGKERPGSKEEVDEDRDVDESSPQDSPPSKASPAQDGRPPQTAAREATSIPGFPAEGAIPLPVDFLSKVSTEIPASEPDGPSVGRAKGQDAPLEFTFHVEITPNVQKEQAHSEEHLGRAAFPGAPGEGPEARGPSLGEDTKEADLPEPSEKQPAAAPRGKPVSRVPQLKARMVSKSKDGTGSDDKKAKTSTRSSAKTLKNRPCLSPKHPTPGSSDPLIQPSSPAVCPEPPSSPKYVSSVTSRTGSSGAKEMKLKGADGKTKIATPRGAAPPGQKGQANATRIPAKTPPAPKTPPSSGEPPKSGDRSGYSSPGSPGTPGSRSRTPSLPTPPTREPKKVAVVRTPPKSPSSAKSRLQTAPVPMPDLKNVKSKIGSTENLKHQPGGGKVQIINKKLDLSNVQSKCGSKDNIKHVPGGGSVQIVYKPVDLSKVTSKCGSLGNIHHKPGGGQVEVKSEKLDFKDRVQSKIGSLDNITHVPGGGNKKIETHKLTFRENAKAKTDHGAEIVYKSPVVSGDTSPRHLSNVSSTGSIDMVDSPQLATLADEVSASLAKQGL
Test: qHTS for Inhibitors of Tau Fibril Formation, Thioflavin T Binding; further: nearly all actives have a fitted effect of over 55% in size
Details: recombinant tau K18 P301L (four-repeat tau fragment), heparin-induced fibrillization, ThT fluorescence; series mostly up to 57.4 µM; activity, negative = inhibition: at the top concentration
Method in brief: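 K18 P301L tau (15 uM + 0.24 uM Alexa 594-tagged), heparin 20 uM, NaOAc pH 7, 6 h 37 C; ThT 30 uM, 1 h RT, ex 450/em 510 nm.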
On the % scale 0 is the no-effect control and ±100 the full control effect; potency means the concentration at half of the fitted maximal effect; tags describe the fitted curve by direction and shape.

SMILES | activity, negative = inhibition | Potency
COc1ccc(NS(=O)(=O)c2cccc(-c3n[nH]c(=S)n3Cc3ccccc3)c2)cc1 | inactive: -8.74% | –
COc1ccccc1-n1cc(-c2ccc([N+](=O)[O-])cc2)[nH]c1=S | – | inconclusive: 2.24 µM [inhibitor, full curve]
O=C(CN1C(=O)CSc2ccccc21)N1CCc2ccccc21 | inactive: -4.52% | –
Cc1cc2cc(CNC(=O)c3cc4ccccc4o3)ccc2n1C | – | inconclusive: 20 µM [inhibitor, partial curve]
COc1ccc(NC(=O)CN2C(=O)CSc3ccc(S(=O)(=O)N(C)C)cc32)cc1OC | inactive: 1.42% | –
COc1cc(O)cc(OC)c1OC | – | inconclusive: 28.2 µM [inhibitor, partial curve]
Cc1cc(C)cc(NC(=O)C(=O)NCC(c2ccc3c(c2)OCO3)N2CCOCC2)c1 (stereo unspecified) | inactive: -5.54% | –
NNc1nc(-c2ccccc2)cs1 | – | inconclusive: 12.6 µM [inhibitor, partial curve]
CCc1sc(C(C2C(=O)CC(C)(C)CC2=O)C2C(=O)CC(C)(C)CC2=O)cc1[N+](=O)[O-] | – | inconclusive: 11.2 µM [inhibitor, partial curve]
COc1ccc(Cl)cc1NC(=O)Nc1cccc([N+](=O)[O-])c1C | – | inconclusive: 31.6 µM [inhibitor, partial curve]
COc1cc(NC(=O)c2noc3c2CCC3)c(OC)cc1Cl | – | inconclusive: 35.5 µM [inhibitor, single point]
Cc1cccc(/N=C/c2c(O)c3ccccc3oc2=O)n1 | inactive: -10.2% | –
COc1ccc2nc(N/C(N)=N/C(=S)Nc3cccc(C)c3)nc(C)c2c1 | – | inconclusive: 1 µM [inhibitor, full curve, poor fit]
Clc1ccccc1Nc1ncnc2c1nnn2Cc1ccccc1 | inactive: 6.59% | –
Cc1ccc(CNC(=O)Cn2c(=O)n(Cc3ccccc3)c(=O)c3c2c2cc(C)ccc2n3C)cc1 | inactive: 3.15% | –
Cc1nnc(SCC(=O)N2CCOCC2)c2ccccc12 | – | inconclusive: 25.1 µM [inhibitor, single point]
CCOc1ccc2nc(N3CCC(C(=O)Nc4nnc(CC)s4)CC3)sc2c1 | – | inconclusive: 1.58 µM [inhibitor, full curve]
CCOc1ccc(CNC(=O)Cn2nc(C)n3cccc3c2=O)cc1 | inactive: 22.3% | –
O=C(/C=C/c1ccc(F)cc1)c1cc(Br)ccc1O | – | inconclusive: 39.8 µM [inhibitor, single point]
O=[N+]([O-])c1ccc(CCNc2cccc3ccccc23)c([N+](=O)[O-])c1 | – | inconclusive: 7.08 µM [inhibitor, partial curve]
COC(=O)c1ccc(NC(=O)CSC2=Nc3ccccc3C3CC=NN23)cc1 (stereo unspecified) | – | inconclusive: 5.01 µM [inhibitor, full curve]
Nc1nc(N)c(N=Nc2ccc(SCC(=O)O)cc2)c(=O)[nH]1 | – | inconclusive: 7.94 µM [inhibitor, partial curve]
Cc1nc2nc(SCC(=O)Nc3cccc(Cl)c3)nn2c(C)c1Cc1ccccc1 | inactive: -7.09% | –
NNC(=O)c1cc(-c2ccccc2)sc1N | – | active: 7.94 µM

SMILES | activity, negative = inhibition | Potency
Cc1ccc(/C=N/NC(=O)c2cccc(S(=O)(=O)N3CCOCC3)c2)o1 | inactive: 0.548% | –
COc1ccccc1OCC(=O)Nc1nnc(-c2ccco2)s1 | – | inconclusive: 31.6 µM [inhibitor, single point]
COc1ccc(-c2nc(C)c(CCNC(=O)c3ccc(F)c(F)c3)s2)cc1 | – | inconclusive: 3.16 µM [inhibitor, full curve, poor fit]
CN(C)c1ccc(N=Nc2nc3ccccc3n2C)cc1 | – | active: 0.501 µM
COc1ccc(NC(=O)N/C=C/c2ccc(Cl)cc2)cc1 | – | inconclusive: 17.8 µM [inhibitor, partial curve]
COc1ccc(C(=O)Nc2cccc(-c3nc4ncccc4o3)c2C)cc1 | – | inconclusive: 11.2 µM [inhibitor, partial curve]
COC(=O)CCN(C)CCC(=O)OC | inactive: -2.39% | –
Cc1cc(C(=O)COc2cccnc2[N+](=O)[O-])c(C)n1-c1ccccc1 | – | inconclusive: 14.1 µM [inhibitor, single point]
O=C(Nc1ccccc1N1CCOCC1)c1ccc(S(=O)(=O)NCc2ccco2)cc1 | – | inconclusive: 44.7 µM [inhibitor, single point]
Fc1ccc(Sc2nc(-c3ccccc3)nnc2C(F)(F)F)cc1 | – | inconclusive: 14.1 µM [inhibitor, partial curve]
COC(=O)c1ccc(CN(C(C)=O)c2ccccc2)o1 | inactive: 5.49% | –
COc1ccccc1CNC(=O)C(C)c1ccc([N+](=O)[O-])cc1 (stereo unspecified) | inactive: -3.12% | –
CCOc1ccc(C(=O)Nc2ccc(Cl)cn2)cc1Cl | – | inconclusive: 5.01 µM [inhibitor, full curve, poor fit]
CC1(C)CC(=O)C/C(=N/Nc2nc3ccccc3s2)C1 | – | inconclusive: 22.4 µM [inhibitor, partial curve]
COCCn1c(=O)[nH]c(=O)c2c1nc(-c1ccc(-c3ccc(Cl)cc3[N+](=O)[O-])o1)n2Cc1ccccc1 | – | inconclusive: 7.94 µM [inhibitor, partial curve]
COc1ccccc1N1CCN(CCNC(=O)Nc2cccc(C)c2C)CC1 | – | inconclusive: 22.4 µM [inhibitor, single point]
Cc1ccc(S(=O)(=O)N(C)C)cc1NC(=S)N1CCc2ccccc21 | inactive: -3.9% | –
COc1cc(/C=N/n2c(-c3ccccc3)n[nH]c2=S)cc(OC)c1OC | inactive: -7.56% | –
Cc1cc(=S)cc(C)n1CCCO | – | inconclusive: 39.8 µM [inhibitor, single point]
Cc1ccc(OCC(=O)Nc2ccc(OCc3cc(=O)n4ccsc4n3)cc2)cc1 | inactive: -27.5% | –
CC(C)Oc1ccc(C(=O)Nc2ccc(NC(=O)c3ccco3)c(Cl)c2)cc1 | – | inconclusive: 1.78 µM [inhibitor, full curve]
CCC(=O)N1c2ccccc2CC1C(=O)NCCc1ccccc1Cl (stereo unspecified) | inactive: 5.13% | –
O=c1cc2ncc(-n3cc([N+](=O)[O-])cn3)cn2[nH]1 | – | inconclusive: 2.51 µM [inhibitor, full curve]
Cc1cccc(N=C2NC(=O)/C(=C/c3cccn3C)S2)c1 | – | active: 7.94 µM

SMILES | activity, negative = inhibition | Potency
CCC1=Nc2cc(C(=O)NCc3ccccc3OC)ccc2Sc2ccc(Cl)cc21 | inactive: 2.95% | –
COc1cccc(-c2nc3ccc(O)cc3c(=O)o2)c1 | – | inconclusive: 14.1 µM [inhibitor, partial curve]
COc1ccc(-c2cn3cccnc3n2)cc1NC(=O)COc1ccccc1 | – | inconclusive: 2.82 µM [inhibitor, single point]
O=C(N/C(C(=O)N1CCOCC1)=C(\Sc1ncccn1)c1ccccc1)c1ccccc1 | – | inconclusive: 31.6 µM [inhibitor, single point]
COc1ccc(-c2oc3cc(OC)ccc3c2C(=O)c2ccc(C#N)cc2)cc1 | – | inconclusive: 5.62 µM [inhibitor, partial curve, poor fit]
O=C1CC(N2CCC(Cc3ccccc3)CC2)C(=O)N1CCc1ccccc1 (stereo unspecified) | inactive: -14.8% | –
N#Cc1c(NC(=O)c2nc3ncccn3n2)sc2c1CCCCC2 | – | inconclusive: 15.8 µM [inhibitor, partial curve]
Nn1c(SCc2cccc3ccccc23)nnc1-c1ccco1 | – | inconclusive: 31.6 µM [inhibitor, partial curve]
O=C(CCc1nnc(-c2ccc3c(c2)OCO3)o1)N1CCC(c2ccc(F)cc2)C1 (stereo unspecified) | – | inconclusive: 8.91 µM [inhibitor, full curve]
CCOC(=O)CN(Cc1ccccc1)C(C(=O)NC1CCCCC1)c1ccc(C)cc1 (stereo unspecified) | – | inconclusive: 12.6 µM [inhibitor, partial curve]
CC(C)c1cc(-c2n[nH]c(=S)n2Cc2ccccc2)cs1 | – | inconclusive: 3.98 µM [inhibitor, full curve]
COc1cc2c(cc1OC)C1=C(C#N)CN(CC(=O)O)CN1CC2 | – | inconclusive: 20 µM [inhibitor, partial curve]
CCC(=O)N1CCc2cc(S(=O)(=O)NC(C(=O)NCc3ccccc3Cl)C(C)C)ccc21 (stereo unspecified) | – | inconclusive: 14.1 µM [activator, partial curve]
COc1ccc(CNC(=O)c2ccc(-c3nc(CSc4ccc(C)cc4)c(C)o3)cc2)cc1OC | inactive: 9.1% | –
Cc1nn(C(=O)c2ccccc2)c(C)c1S(=O)(=O)N1CCOCC1 | – | inconclusive: 6.31 µM [inhibitor, full curve, poor fit]
O=C(N/N=C/c1ccc2c(c1)OCO2)c1ccccn1 | inactive: -14.2% | –
O=c1[nH]nc(SCc2nnc(-c3ccc([N+](=O)[O-])cc3)o2)n1C1CCCCC1 | – | inconclusive: 15.8 µM [inhibitor, single point]
O=C(NCc1ccc(Cl)cc1)c1ccc(NC(=O)N2CC3CCCN3c3ccccc32)cc1 (stereo unspecified) | inactive: -11.9% | –
COc1ccc(N2CCN(c3ncnc4c3cnn4-c3ccc(C)c(Cl)c3)CC2)cc1 | – | inconclusive: 2.82 µM [inhibitor, full curve]
Cc1ccc(Cl)cc1N1CCN(C(=O)CN2C(=O)COc3ccc(S(=O)(=O)N4CCC(C)CC4)cc32)CC1 | – | inconclusive: 0.0891 µM [inhibitor, full curve, poor fit]
CC(=O)N1C(=O)C2(C(C#N)=C(N)Oc3c2c(C)nn3-c2ccccc2)c2ccccc21 (stereo unspecified) | – | active: 28.2 µM
COC(=O)N/N=C/c1cc(C)n(-c2cccc3ccccc23)c1C | – | inconclusive: 25.1 µM [inhibitor, partial curve, poor fit]
COc1ccc(N2CCN(CC(O)COc3ccc(C)cc3C)CC2)cc1 (stereo unspecified) | – | inconclusive: 14.1 µM [inhibitor, partial curve, poor fit]
